PubChem BioAssay AID1478 (National Center for Advancing Translational Sciences (NCATS), 2009)
The whole screen tested about 200,000 compounds, of which about 860 (0.43%) were called active. The shares of active, inactive and inconclusive entries below differ from those in the screen. The call rests on the fitted dose curve; in most records, active means well fitted inhibition curve with a large enough effect; inconclusive means small, poorly fitted or top-dose-only effect; inactive means flat fitted curve, though single readings scatter. Where the call is inconclusive, the potency comes from a doubtful curve fit.

biological target: Cruzipain (Trypanosoma cruzi) (UniProt P25779); experiment: qHTS Assay for Promiscuous and Specific Inhibitors of Cruzain (with detergent); conditions: purified cruzain, Z-FR-AMC fluorescence, 0.01% Triton; further: nearly all actives have a fitted effect of over 40% in size;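 on max response, negative = inhibition: plate controls were neutral wells for no effect and buffer without enzyme for full effect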
Chain of UniProt P25779 (P25779 whole entry, looked up): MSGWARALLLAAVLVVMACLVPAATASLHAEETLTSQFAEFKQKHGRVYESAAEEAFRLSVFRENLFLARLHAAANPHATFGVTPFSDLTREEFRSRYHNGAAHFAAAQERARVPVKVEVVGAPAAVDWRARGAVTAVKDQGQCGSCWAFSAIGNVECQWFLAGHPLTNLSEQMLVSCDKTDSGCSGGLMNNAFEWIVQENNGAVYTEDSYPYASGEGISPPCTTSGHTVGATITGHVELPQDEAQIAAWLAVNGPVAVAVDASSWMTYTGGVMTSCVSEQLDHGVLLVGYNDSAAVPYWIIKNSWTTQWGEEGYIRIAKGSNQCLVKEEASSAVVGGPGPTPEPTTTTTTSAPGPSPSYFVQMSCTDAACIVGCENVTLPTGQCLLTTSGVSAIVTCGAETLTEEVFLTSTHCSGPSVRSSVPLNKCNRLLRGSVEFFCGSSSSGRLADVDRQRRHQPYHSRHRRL
Procedure, shortened: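 Cruzain (1.5 nM) preincubated 15 min at RT with compound in 100 mM sodium acetate pH 5.5, 5 mM DTT, 0.01% Triton X-100. Reaction started with 2 uM Z-FR-AMC; AMC fluorescence (ex 360/em 450 nm) change over 60 s gave rate.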
Potency means the concentration at half of the fitted maximal effect; tags describe the fitted curve by direction and shape.

Structure (SMILES)	max response, negative = inhibition	Potency
CCc1ccc(-c2nc3cc(NC(=O)c4ccc(F)cc4)ccc3o2)cc1	inactive: 0.681%	
CC(=O)Oc1ccc2c(C)c(CC(C)O)c(=O)oc2c1 (stereo unspecified)		inconclusive: 28.2 µM [inhibitor, single point]
CN1CCN(c2ncc3nc(-c4cccc(C#N)c4)c(=O)n(CCC#N)c3n2)CC1		inconclusive: 31.6 µM [inhibitor, single point]
Fc1ccc(N2N=C(c3cccs3)CC2c2ccco2)c(F)c1 (stereo unspecified)		inconclusive: 31.6 µM [inhibitor, single point]
C=CCn1c(SCC(=O)N2CCc3ccccc3C2)nnc1-c1ccncc1	inactive: -2.24%	
O=C(COC(=O)CNC(=O)c1ccccc1)Nc1cccc(Br)c1		inconclusive: 20 µM [inhibitor, single point]
COCCCn1c(=N)c(C(=O)NC2CCCCC2)cc2c(=O)n3ccccc3nc21		inconclusive: 25.1 µM [inhibitor, single point]
Cc1cc(-c2ccc(N=Nc3ccc4c(S(=O)(=O)O)cc(S(=O)(=O)O)c(N)c4c3O)c(C)c2)ccc1N=Nc1ccc2c(S(=O)(=O)O)cc(S(=O)(=O)O)c(N)c2c1O		active: 28.2 µM
FC(F)(F)c1ccccc1-c1cc(NCc2cccs2)ncn1	inactive: -1.03%	
COc1ccc2ccccc2c1C(=O)/C=C\c1ccoc1		inconclusive: 28.2 µM [inhibitor, single point]
O=C(O)c1cc2c(ccc3ccccc32)oc1=O		inconclusive: 31.6 µM [inhibitor, single point]
CC(Cl)CCl (stereo unspecified)	inactive: -1.97%	
COc1ccccc1OCc1ccc(C(=O)NC(C)(C)C)o1		inconclusive: 31.6 µM [inhibitor, single point]
O=C1CN(C(=O)COC(=O)CNC(=O)c2ccccc2)c2ccccc2N1		inconclusive: 25.1 µM [inhibitor, single point]
CCCCCCN(C(=O)CCCCCN1C(=O)NC(c2ccc(-c3ccccc3)cc2)C(C(=O)OCc2ccccc2)=C1C)C(C(=O)NCCCC)c1ccc(OCC(=O)O)c(C(=O)O)c1 (stereo unspecified)		inconclusive: 22.4 µM [inhibitor, single point]
CCCCc1cc(=O)oc2c(CN(C)C)c(O)ccc12		inconclusive: 31.6 µM [inhibitor, single point]
CCOc1ccc(S(=O)(=O)NCCC(=O)OCN2C(=O)c3ccccc3C2=O)cc1	inactive: -7.26%	
CC(=O)Nc1ccc2nc3c(=O)[nH]c(=O)[nH]c3nc2c1	inactive: -7.33%	
Cc1cc(NC(=O)CSc2ccc3ccccc3c2)no1		inconclusive: 35.5 µM [inhibitor, single point]
O=C(c1ccco1)N1CCC2(CCN(Cc3ccncc3)CC2)CC1	inactive: 1.94%	
O=C(Nc1c(C(=O)N2CCN(c3ccc(F)cc3)CC2)oc2ccccc12)c1c(F)cccc1F	inactive: -4.3%	
CCC1CSC(Nc2ccc(C(=O)/C=C/c3ccc(OC)c(OC)c3)cc2)=N1 (stereo unspecified)		inconclusive: 15.8 µM [inhibitor, partial curve]
CN1CCN(c2oc(/C=C/c3ccc(F)cc3)nc2C#N)CC1		active: 25.1 µM
COc1ccccc1-c1nc(C#N)c(N2CCC(Cc3ccccc3)CC2)o1		active: 35.5 µM

Structure (SMILES)	max response, negative = inhibition	Potency
Cc1nnc(N2CCCC(C(=O)Nc3cccc(C(F)(F)F)c3)C2)c2nn(-c3ccccc3)c(C)c12 (stereo unspecified)	inactive: -6.63%	
CCOc1ccc2nc(NS(=O)(=O)c3ccc4c(c3)n(C)c(=O)n4C)sc2c1		inconclusive: 14.1 µM [inhibitor, partial curve]
CC(C)CC(C(=O)OCC(=O)Nc1cccc(Cl)c1)N1C(=O)C2CC=CCC2C1=O (stereo unspecified)		active: 14.1 µM
Nc1ccc(-c2nc3ccc(C(=O)O)cc3s2)cc1		active: 25.1 µM
O=C(Nc1ccc(-c2nc3ccccc3s2)c(O)c1)C1=COCCO1		active: 15.8 µM
Cc1ccc(N(Cc2cccs2)C(=O)Nc2cccc(Cl)c2)cc1	inactive: -4.45%	
Cc1nn(-c2ccc([N+](=O)[O-])cc2)c2c1C(c1cccc(Br)c1)N1C(=N2)C(=O)Nc2ccccc21 (stereo unspecified)	inactive: -2.86%	
Cc1ccc(S(=O)(=O)c2cc3c(=O)n4ccccc4nc3n(C)c2=N)cc1		inconclusive: 31.6 µM [inhibitor, single point]
Cc1ccc(Cl)c2c1N[C@@H](c1ccc(C(=O)O)cc1)[C@H]1CC=C[C@@H]21		inconclusive: 31.6 µM [inhibitor, single point]
Cc1cccc(C(=O)N=c2c(C#N)cc3c(=O)n4cccc(C)c4nc3n2Cc2ccco2)c1		active: 8.91 µM
Cc1cc(C)nc(SCc2nnc(SCC(=O)Nc3nc(-c4ccccc4)cs3)n2C)n1	inactive: -4.85%	
Cc1ccc(OCC(=O)Nc2ccc(S(=O)(=O)Nc3cc(C)nc(C)n3)cc2)c(Br)c1	inactive: -18.6%	
Cc1ccc(Cl)cc1N1CCN(C(=O)c2cnc(N3CCOCC3)c3ccccc23)CC1		inconclusive: 31.6 µM [inhibitor, single point]
Cc1cccc(Cc2c(C)nc3c(C(=O)NCc4ccco4)cnn3c2C)c1		inconclusive: 28.2 µM [inhibitor, single point]
COc1ccc(N2CCN(C(CNC(=O)C(=O)NCc3ccc(F)cc3)c3cccnc3)CC2)cc1 (stereo unspecified)	inactive: -9.71%	
CN1C(=O)NC(c2ccccc2)(C(F)(F)F)S/C1=C(/C#N)c1nnc(N2CCOCC2)n1-c1ccccc1 (stereo unspecified)		inconclusive: 22.4 µM [inhibitor, single point]
COc1ccc2[nH]c3c(NCc4ccco4)ncnc3c2c1		active: 17.8 µM
O=C(Nc1ccc(-c2nc3ccc(NC(=O)c4cccs4)cc3[nH]2)cc1)c1cccs1		active: 11.2 µM
COc1ccc2cc(S(=O)(=O)c3ccccc3F)c(=O)oc2c1		inconclusive: 25.1 µM [inhibitor, single point]
Cc1ccc(-c2cn3cccnc3n2)cc1NC(=O)c1ccc(Br)o1		inconclusive: 31.6 µM [inhibitor, single point]
COc1ccc(CN2C(=O)c3cccnc3C2Nc2cc(Cl)ccc2OC)cc1 (stereo unspecified)		inconclusive: 15.8 µM [inhibitor, partial curve]
Cc1ccnc(NS(=O)(=O)c2ccc(NC(=O)c3cc(=O)c4ccc(C)c(C)c4o3)cc2)n1	inactive: -1.21%	
CCCCn1c(CCNC(=O)c2ccc(F)cc2)nc2ccccc21		active: 7.08 µM
Nc1nnnn1/N=C/c1ccccc1OCc1ccc(Cl)cc1Cl		active: 14.1 µM

Structure (SMILES)	max response, negative = inhibition	Potency
COc1cccc(NC(=O)C(=O)NCCc2sc(-c3cccc(C)c3)nc2C)c1	inactive: -4.95%	
COC(=O)C1=C(C)NC(C)=C(C(=O)OC)C1c1ccc(-c2cccc(Cl)c2Cl)o1		inconclusive: 14.1 µM [inhibitor, partial curve]
CCCN(CCC)CCNC(=O)C(NS(=O)(=O)c1ccc2c(c1)CCC(=O)N2)c1ccccc1 (stereo unspecified)		inconclusive: 39.8 µM [inhibitor, single point]
Cc1ccc(NC(=O)c2oc3c(c2C)-c2[nH]ncc2CC3)c(Cl)c1	inactive: -7.16%	
O=C(NCCCN1CCc2ccccc2C1)C1CCN(c2nnc(-n3cccc3)s2)CC1		active: 25.1 µM
O=S(=O)(Nc1nc(-c2sccc2Cl)cs1)c1cc(Cl)ccc1Cl		active: 20 µM
CCOc1ccccc1C(=O)NCC(=O)OCC(=O)c1ccc2c(c1)OCCO2		active: 25.1 µM
Cc1ccc(C(=O)C(OC(=O)CNC(=O)c2ccc(Cl)cc2)c2ccccc2)cc1 (stereo unspecified)		active: 6.31 µM
Cc1ccc(OCC(=O)Nc2ccc3nn(-c4ccc(C)cc4)nc3c2)cc1	inactive: 0.0877%	
COc1cccc(NC(=O)Cn2c(=O)n(CCCCC(=O)NCc3ccccc3Cl)c(=O)c3ccccc32)c1	inactive: -3.18%	
CC1CCN(C(=O)CSc2nc3ccccc3nc2Cc2ccccc2)CC1	inactive: -3.96%	
CCc1cccc(NC(=O)NC2CCCCC2)c1	inactive: -0.162%	
COc1ccccc1OCCN1CSC(=S)N(C)C1		inconclusive: 31.6 µM [inhibitor, single point]
O=C(O)CC1S/C(=N/N=C/c2ccc(-c3ccc(Cl)cc3[N+](=O)[O-])o2)NC1=O (stereo unspecified)		inconclusive: 22.4 µM [inhibitor, single point]
CC1CCCN(S(=O)(=O)c2cc3c4c(c2)CC(=O)N4CCC3)C1 (stereo unspecified)	inactive: -2.71%	
COC(=O)c1cc(OC)c(OC)cc1NC(=O)c1ccc(C)o1		inconclusive: 35.5 µM [inhibitor, single point]
CCCn1nc([N+](=O)[O-])c(C(C#N)c2nc3ccccc3s2)c(Cl)c1=O (stereo unspecified)		inconclusive: 39.8 µM [inhibitor, single point]
Cc1ccc(OCCn2c(-c3ccc(Br)cc3)nc3ccccc3c2=O)cc1C	inactive: -1.4%	
Cc1cccc(N=C2NC(=O)/C(=C/C=C/c3ccco3)S2)c1C		inconclusive: 25.1 µM [inhibitor, single point]
CCn1c(CCNC(=O)c2ccc(Cl)c(Cl)c2)nnc1SCCOc1ccc(OC)cc1		inconclusive: 17.8 µM [inhibitor, partial curve]
O=C(N/N=C/C=C/c1ccccc1)c1cc2c(ccc3ccccc32)o1		inconclusive: 20 µM [inhibitor, single point]
CCCN(CCC)CCNC(=O)c1cc2c(=O)n(C)c3ccccc3c2n1C		active: 15.8 µM
N#Cc1nc(/C=C/c2ccc(F)cc2)oc1N1CCCCC1		inconclusive: 3.55 µM [inhibitor, single point]
